MIC of multidrug-resistant clinical P. aeruginosa isolates by reference broth microdilution, Sensititre or Phoenix panel; µg/mL of the β-lactam, with the inhibitor fixed at 4 µg/mL where named; higher = less susceptible; each panel covers only a few steps. No active / inactive call per row; the paper applies CLSI M100 breakpoints. The methods often differ by one or more steps on the same isolate. Several isolates can come from one patient. PDC is the chromosomal AmpC β-lactamase of the species; the number names its allele. Isolates are numbered anew.
What was measured:
Experiment in all cases: Reference broth microdilution (once per isolate) and two commercial panels; inhibitor fixed at 4 µg/mL.
[1] = compound: C[C@@H](O)[C@H]1C(=O)N2C(C(=O)O)=C(SCCNC=N)C[C@H]12 [imipenem]; conditions: reference broth microdilution
[2] = compound: Cn1c(N)c(NC(=O)NCCN)c[n+]1CC1=C(C(=O)[O-])N2C(=O)[C@@H](NC(=O)/C(=N\OC(C)(C)C(=O)O)c3nsc(N)n3)[C@H]2SC1 [ceftolozane] (with: tazobactam 4 µg/mL)
[3] = compound: CC(C)(O/N=C(\C(=O)N[C@@H]1C(=O)N2C(C(=O)[O-])=C(C[n+]3ccccc3)CS[C@H]12)c1csc(N)n1)C(=O)O [ceftazidime] (with: avibactam 4 µg/mL)

Test System | MIC [1] [µg/mL] | MIC ([2]; BD Phoenix panel) [µg/mL] | MIC ([2]; reference broth microdilution) [µg/mL] | MIC ([3]; BD Phoenix panel) [µg/mL] | MIC ([3]; reference broth microdilution) [µg/mL] | MIC ([2]; Sensititre panel) [µg/mL] | MIC ([3]; Sensititre panel) [µg/mL]
Pseudomonas aeruginosa isolate 99 (PDC allele: blaPDC-364) | ≤ 1 | ≤ 1 | ≤ 1 | 8 | 8 |  | 
Pseudomonas aeruginosa isolate 100 (PDC allele: blaPDC-1) | 8 | ≤ 1 | 2 | 8 | 16 |  | 
Pseudomonas aeruginosa isolate 101 (PDC allele: blaPDC-15) | 2 | ≤ 1 | 2 | 8 | 16 |  | 
Pseudomonas aeruginosa isolate 102 (PDC allele: blaPDC-3) | > 8 | ≤ 1 | ≤ 1 | 8 | 8 |  | 
Pseudomonas aeruginosa isolate 103 (PDC allele: blaPDC-1) | ≤ 1 | 2 | ≤ 1 | 8 | ≤ 4 |  | 
Pseudomonas aeruginosa isolate 104 (PDC allele: blaPDC-34) | ≤ 1 | ≤ 1 | ≤ 1 | 2 | ≤ 4 |  | 
Pseudomonas aeruginosa isolate 105 (PDC allele: blaPDC-172) | > 8 | ≤ 1 | ≤ 1 | 4 | ≤ 4 |  | 
Pseudomonas aeruginosa isolate 106 (PDC allele: blaPDC-3) | 4 | 2 | 2 | 2 | ≤ 4 | 2 | ≤ 4
Pseudomonas aeruginosa isolate 107 (PDC allele: blaPDC-16) | > 8 | ≤ 1 | 2 | 4 | 8 | 2 | 8
Pseudomonas aeruginosa isolate 108 (PDC allele: blaPDC-19a) | 2 | 2 | 2 | 4 | 8 | 4 | 8
Pseudomonas aeruginosa isolate 109 (PDC allele: blaPDC-3) | ≤ 1 | ≤ 1 | 4 | 4 | 16 | 4 | 16
Pseudomonas aeruginosa isolate 110 (PDC allele: blaPDC-30) | > 8 | ≤ 1 | 2 | 2 | ≤ 4 |  | 
Pseudomonas aeruginosa isolate 111 (PDC allele: blaPDC-3) | ≤ 1 | ≤ 1 | ≤ 1 | 8 | ≤ 4 |  | 
Pseudomonas aeruginosa isolate 112 (PDC allele: blaPDC-71) | > 8 | 2 | 8 | 4 | ≥ 32 |  | 
Pseudomonas aeruginosa isolate 113 (PDC allele: blaPDC-5) | 2 | 2 | 4 | 4 | ≤ 4 | 4 | ≤ 4
Pseudomonas aeruginosa isolate 114 (PDC allele: blaPDC-46) | ≤ 1 | ≤ 1 | ≤ 1 | 2 | ≤ 4 | ≤ 1 | ≤ 4
Pseudomonas aeruginosa isolate 115 (PDC allele: blaPDC-121) | > 8 | ≤ 1 | 2 | 8 | 8 | 2 | 8
Pseudomonas aeruginosa isolate 116 (PDC allele: blaPDC-24) | > 8 | 4 | 8 | 8 | 8 | 8 | 8
Pseudomonas aeruginosa isolate 117 (PDC allele: blaPDC-24) | 8 | 4 | 8 | 4 | 16 | 8 | 8
Pseudomonas aeruginosa isolate 118 (PDC allele: blaPDC-1) | > 8 | ≤ 1 | 2 | 2 | 8 | 4 | 8

Test System | MIC [1] [µg/mL] | MIC ([2]; BD Phoenix panel) [µg/mL] | MIC ([2]; reference broth microdilution) [µg/mL] | MIC ([3]; BD Phoenix panel) [µg/mL] | MIC ([3]; reference broth microdilution) [µg/mL] | MIC ([2]; Sensititre panel) [µg/mL] | MIC ([3]; Sensititre panel) [µg/mL]
Pseudomonas aeruginosa isolate 119 (PDC allele: blaPDC-1) | 8 | ≤ 1 | ≤ 1 | 2 | ≤ 4 | ≤ 1 | ≤ 4
Pseudomonas aeruginosa isolate 120 (PDC allele: blaPDC-3) | > 8 | 4 | 4 | 8 | 8 | 4 | 8
Pseudomonas aeruginosa isolate 121 (PDC allele: blaPDC-8) | > 8 | ≤ 1 | 4 | 8 | 8 |  | 
Pseudomonas aeruginosa isolate 122 (PDC allele: blaPDC-35, carbapenemase gene: blaKPC-2) | > 8 | > 8 | 8 | 8 | ≤ 4 |  | 
Pseudomonas aeruginosa isolate 123 (PDC allele: blaPDC-8) | 2 | 2 | ≤ 1 | 4 | ≤ 4 |  | 
Pseudomonas aeruginosa isolate 124 (PDC allele: blaPDC-117) | ≤ 1 | ≤ 1 | 4 | 4 | ≤ 4 |  | 
Pseudomonas aeruginosa isolate 125 (PDC allele: blaPDC-56) | 2 | 2 | ≤ 1 | 8 | ≤ 4 |  | 
Pseudomonas aeruginosa isolate 126 (PDC allele: blaPDC-46) | ≤ 1 | ≤ 1 | 2 | 4 | ≤ 4 |  | 
Pseudomonas aeruginosa isolate 127 (PDC allele: blaPDC-1) | 2 | 2 | 2 | 2 | ≤ 4 |  | 
Pseudomonas aeruginosa isolate 129 (PDC allele: blaPDC-11) | 2 | 2 | 2 | 8 | 8 | ≤ 1 | ≤ 4
Pseudomonas aeruginosa isolate 131 (PDC allele: blaPDC-8) | 8 | ≤ 1 | ≤ 1 | 2 | 8 | ≤ 1 | ≤ 4
Pseudomonas aeruginosa isolate 132 (PDC allele: blaPDC-8) | ≤ 1 | ≤ 1 | 2 | 2 | ≤ 4 |  | 
Pseudomonas aeruginosa isolate 133 (PDC allele: blaPDC-5) | 2 | 2 | 2 | 4 | ≤ 4 | 4 | 8
Pseudomonas aeruginosa isolate 134 (PDC allele: blaPDC) | ≤ 1 | 2 | 2 | 4 | ≤ 4 | ≤ 1 | ≤ 4
Pseudomonas aeruginosa isolate 135 (PDC allele: blaPDC-3) | 4 | 2 | 8 | 8 | 16 |  | 
Pseudomonas aeruginosa isolate 136 (PDC allele: blaPDC-34) | 8 | 2 | 2 | 2 | ≤ 4 |  | 
Pseudomonas aeruginosa isolate 137 (PDC allele: blaPDC-10) | > 8 | 4 | 8 | > 8 | ≥ 32 |  | 
Pseudomonas aeruginosa isolate 138 (PDC allele: blaPDC-1) | > 8 | 2 | ≤ 1 | 4 | ≤ 4 | 2 | ≤ 4
Pseudomonas aeruginosa isolate 139 (PDC allele: blaPDC-402) | ≤ 1 | ≤ 1 | 2 | 8 | 16 |  | 
Pseudomonas aeruginosa isolate 141 (PDC allele: blaPDC-34) | 2 | 2 | 2 | 4 | ≤ 4 |  | 

Test System | MIC [1] [µg/mL] | MIC ([2]; BD Phoenix panel) [µg/mL] | MIC ([2]; reference broth microdilution) [µg/mL] | MIC ([3]; BD Phoenix panel) [µg/mL] | MIC ([3]; reference broth microdilution) [µg/mL] | MIC ([2]; Sensititre panel) [µg/mL] | MIC ([3]; Sensititre panel) [µg/mL]
Pseudomonas aeruginosa isolate 142 (PDC allele: blaPDC-1) | > 8 | 2 | 2 | 8 | 8 |  | 
Pseudomonas aeruginosa isolate 143 (PDC allele: blaPDC-5) | 2 | 2 | ≥ 16 | > 8 | 8 |  | 
Pseudomonas aeruginosa isolate 144 (PDC allele: blaPDC-3) | ≤ 1 | > 8 | ≥ 16 | 8 | 8 |  | 
Pseudomonas aeruginosa isolate 145 (PDC allele: blaPDC-31) | ≤ 1 | ≤ 1 | 2 | 8 | 16 |  | 
Pseudomonas aeruginosa isolate 146 (PDC allele: blaPDC-3) | 4 | 2 | 2 | > 8 | 16 | 2 | 16
Pseudomonas aeruginosa isolate 147 (PDC allele: blaPDC-5) | > 8 | ≤ 1 | 4 | 1 | ≤ 4 | 4 | 8
Pseudomonas aeruginosa isolate 148 (PDC allele: blaPDC-30) | ≤ 1 | 2 | 4 | > 8 | 16 | 8 | > 16
Pseudomonas aeruginosa isolate 149 (PDC allele: blaPDC-5) | 8 | 4 | 4 | 2 | 8 |  | 
Pseudomonas aeruginosa isolate 150 (PDC allele: blaPDC-24) | 2 | ≤ 1 | ≤ 1 | 8 | ≤ 4 | ≤ 1 | 8
Pseudomonas aeruginosa isolate 151 (PDC allele: blaPDC-34) | 8 | 2 | 2 | 2 | ≤ 4 |  | 
Pseudomonas aeruginosa isolate 153 (PDC allele: blaPDC-24) | ≤ 1 | 4 | 4 | 4 | 8 | 8 | 8
Pseudomonas aeruginosa isolate 154 (PDC allele: blaPDC-3) | > 8 | ≤ 1 | ≤ 1 | 8 | 8 |  | 
Pseudomonas aeruginosa isolate 155 (PDC allele: blaPDC-3) | 2 | ≤ 1 | ≤ 1 | > 8 | 16 | ≤ 1 | 8
Pseudomonas aeruginosa isolate 156 (PDC allele: blaPDC-266) | 4 | 4 | 8 | 8 | 8 | 8 | 8
Pseudomonas aeruginosa isolate 157 (PDC allele: blaPDC-1, ftsI change: ftsI_R504C) | > 8 | 2 | 4 | > 8 | ≥ 32 |  | 
Pseudomonas aeruginosa isolate 158 (PDC allele: blaPDC-56) | 4 | ≤ 1 | ≤ 1 | 8 | 8 |  | 
Pseudomonas aeruginosa isolate 159 (PDC allele: blaPDC-5) | ≤ 1 | 2 | 4 | 4 | ≤ 4 | 4 | 8
Pseudomonas aeruginosa isolate 160 (PDC allele: blaPDC-1, ftsI change: ftsI_R504C) | > 8 | 2 | 4 | > 8 | ≥ 32 |  | 
